Test results reported in PubChem BioAssay AID504339 (National Center for Advancing Translational Sciences (NCATS), 2011).
Among all 390,000 compounds or so, about 17,000 (4.4%) were called active. This list was built around the results that the source calls inconclusive (neither active nor inactive); the mix of calls is not that of the screen. Calls come from the whole dose curve; as a rule, active = well fitted inhibition curve with a large enough effect; inconclusive = small, poorly fitted or top-dose-only effect; inactive = no such curve, though single readings can be large or run the other way. Where the call is inconclusive, the potency comes from a doubtful curve fit.

target: Lysine-specific demethylase 4A (Homo sapiens) (UniProt O75164); experiment: qHTS Assay for Inhibitors of JMJD2A-Tudor Domain; settings: AlphaScreen JMJD2A-Tudor / H3K4me3 peptide binding; series mostly up to 114 µM; note: nearly all actives have a fitted effect of over 50% in size
Chain of UniProt O75164 (O75164 whole entry, looked up, the tested form may be a part): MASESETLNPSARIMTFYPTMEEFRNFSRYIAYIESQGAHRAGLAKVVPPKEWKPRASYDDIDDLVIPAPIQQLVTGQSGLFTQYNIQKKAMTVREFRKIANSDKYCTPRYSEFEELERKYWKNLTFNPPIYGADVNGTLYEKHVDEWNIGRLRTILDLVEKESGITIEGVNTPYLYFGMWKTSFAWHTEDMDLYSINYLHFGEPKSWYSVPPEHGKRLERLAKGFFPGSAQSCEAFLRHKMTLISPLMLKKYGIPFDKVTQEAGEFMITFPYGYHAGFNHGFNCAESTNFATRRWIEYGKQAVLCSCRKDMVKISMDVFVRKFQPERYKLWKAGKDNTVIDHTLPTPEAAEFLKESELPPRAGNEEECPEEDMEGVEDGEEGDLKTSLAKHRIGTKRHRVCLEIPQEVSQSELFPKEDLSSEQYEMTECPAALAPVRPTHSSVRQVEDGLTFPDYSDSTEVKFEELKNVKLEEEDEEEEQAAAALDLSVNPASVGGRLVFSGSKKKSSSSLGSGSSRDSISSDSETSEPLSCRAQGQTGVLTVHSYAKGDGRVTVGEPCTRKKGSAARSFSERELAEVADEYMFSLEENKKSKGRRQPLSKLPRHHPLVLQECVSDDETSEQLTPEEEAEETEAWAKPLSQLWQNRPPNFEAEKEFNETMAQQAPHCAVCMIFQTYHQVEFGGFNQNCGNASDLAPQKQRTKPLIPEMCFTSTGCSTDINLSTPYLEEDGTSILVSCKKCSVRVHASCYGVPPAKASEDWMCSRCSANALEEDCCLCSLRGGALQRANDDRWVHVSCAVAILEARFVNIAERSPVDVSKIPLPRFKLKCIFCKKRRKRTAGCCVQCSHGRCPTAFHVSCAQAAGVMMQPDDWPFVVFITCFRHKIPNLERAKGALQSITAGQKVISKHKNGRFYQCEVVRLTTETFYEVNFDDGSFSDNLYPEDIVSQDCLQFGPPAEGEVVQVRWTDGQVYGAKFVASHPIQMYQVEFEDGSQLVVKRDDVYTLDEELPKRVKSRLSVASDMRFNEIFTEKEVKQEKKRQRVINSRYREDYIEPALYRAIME
Potency is the fitted concentration of half-maximal effect; tags give direction and shape of the fitted curve.

SMILES	Potency
NCCSSCCN	inactive
Cc1cc(OCCN2CCCCCC2)ccc1[N+](=O)[O-]	inconclusive: 39.8 µM [inhibitor, single point]
Cn1c(CNS(=O)(=O)c2ccc(Cl)cc2)n[nH]c1=S	active: 6.31 µM
Nc1ccc(O)cc1	inconclusive: 10 µM [inhibitor, partial curve]
COc1ccc(N2CCC(CNS(=O)(=O)c3cccc(C(F)(F)F)c3)C2)cc1 (configuration not stated)	active: 39.8 µM
Cc1cc(Cl)c(OCCOCCN2CCN(C)CC2)c(Br)c1	active: 7.94 µM
[O-]/C(=C(\C(=S)Nc1cccc2ccccc12)[n+]1ccccc1)c1ccc2c(c1)OCCO2	inconclusive: 35.5 µM [inhibitor, partial curve]
COc1cc(NC(=S)NC(=O)c2ccc(F)cc2)ccc1NC(=O)c1ccco1	inconclusive: 70.8 µM [inhibitor, single point]
Nc1ncnc2c1ncn2[C@H]1C[C@H](O)[C@@H](COP(=O)(O)O)O1	inconclusive: 79.4 µM [inhibitor, partial curve, poor fit]
COc1ccc(N2CCN(Cc3cc(OC)c(O)c([N+](=O)[O-])c3)CC2)cc1	active: 1 µM
CC(OC(=O)CCN=C1NS(=O)(=O)c2ccccc21)C(=O)c1ccccc1 (configuration not stated)	inactive
Cc1ccc(N2C(=O)CS/C2=C(\C(Cl)=C(Cl)Cl)[N+](=O)[O-])cc1	active: 39.8 µM
Cc1cccc(OC(C)C(=O)Nc2ccc(N3CCCCC3)cc2)c1 (configuration not stated)	inconclusive: 44.7 µM [inhibitor, partial curve]
O=C(Nc1cccc(-c2csc(Nc3ccc(Cl)cc3)n2)c1)c1cccc(C(F)(F)F)c1	inconclusive: 31.6 µM [inhibitor, partial curve]
O=C(N/N=C\c1c(O)ccc2ccccc12)c1ccc(S(=O)(=O)N2CCCCC2)cc1	inconclusive: 89.1 µM [inhibitor, single point]
CCn1nc(C)c([N+](=O)[O-])c1C(=O)NNC(=O)c1ccc(Cl)cc1	inconclusive: 89.1 µM [inhibitor, single point]
O=C(CSc1nnc(-c2ccncc2)n1-c1ccccc1)Nc1ccc(F)cc1	inactive
COc1ccc(/C=C/CN2CCC(CO)(Cc3ccccc3Cl)CC2)cc1	inactive
Cc1cc(=O)n(Cc2cccc(Cl)c2)c2c1c(C)nn2C	inactive
Cc1cc(Cl)cc(C)c1OCCCCCn1ccnc1	inconclusive: 50.1 µM [inhibitor, partial curve]
CC(C)(C)NC(=O)[C@@H]1C[C@@H]2CCCC[C@@H]2CN1C[C@@H](O)[C@H](Cc1ccccc1)NC(=O)[C@H](CC(N)=O)NC(=O)c1ccc2ccccc2n1	inconclusive: 79.4 µM [inhibitor, partial curve]
CSc1ccc(S(=O)(=O)N2CC(=O)Nc3ccccc32)cc1	inactive
O=C(NCCCN1CCOCC1)c1ccc2c(c1)N(Cc1c(F)cccc1Cl)C(=O)c1ccccc1S2	inconclusive: 31.6 µM [inhibitor, partial curve]
CCOC(=O)c1sc(NC(=O)C2CC=CCC2C(=O)O)nc1C (configuration not stated)	inconclusive: 79.4 µM [inhibitor, partial curve]

SMILES	Potency
CC(C)c1ccc2[nH]c(O)c(N=NC(=O)c3cccc(S(=O)(=O)N4CCCCC4)c3)c2c1	inconclusive: 28.2 µM [inhibitor, partial curve]
Cc1ccc(C)n1-c1ccc(N2CCOCC2)cc1	inconclusive: 100 µM [inhibitor, single point]
Cc1cccc(C(=O)NCCc2nc3ccccc3n2Cc2ccccc2Cl)c1	inactive
COc1ccc2c(c1)c(C(O)CN1CCC(Cc3ccccc3)CC1)c(C)n2C (configuration not stated)	active: 28.2 µM
C=CCn1c(-c2c(C)nc3cc(C)ccn23)n[nH]c1=S	active: 10 µM
COC(=O)c1ccc(N2C(=O)CC(N3CCOCC3)C2=O)cc1 (configuration not stated)	inactive
Cc1ccc(Sc2ccc(N3CCCC(C(=O)Nc4ccc(F)c(Cl)c4)C3)nn2)cc1 (configuration not stated)	inactive
CCOc1ccc(CNC(=O)c2ccc3c(c2)c(C)c(C)n3C)cc1	inconclusive: 22.4 µM [inhibitor, full curve]
COc1ccccc1Nc1nc(NCC2CCCO2)c2ccccc2n1 (configuration not stated)	active: 50.1 µM
CCOc1ccc(-n2c(SCc3ccccc3)nc3c([nH]c4ccccc43)c2=O)cc1	inconclusive: 3.98 µM [inhibitor, single point]
CCCn1c2ccccc2c2cnn(CC(=O)NCC3CCN(Cc4ccc(C)cc4)CC3)c(=O)c21	inactive
Cc1cc(SCNC(=O)c2ccccc2)nc(C(C)C)n1	inactive
Cc1ccc2c(c1)C(=O)C(=O)N2Cc1ccccc1	inconclusive: 56.2 µM [inhibitor, partial curve]
CC[C@]12C(=O)N(C)C[C@H]([C@@H]3C(=O)N(Cc4ccccc4)C(=O)[C@@H]31)N2C(=O)c1ccc(C(F)(F)F)cc1	inactive
Cc1ccc2nc3c(cc(C#N)c(=O)n3-c3nnc(SCc4ccc(F)cc4)s3)c(=O)n2c1	inactive
COc1ccc(-n2c(Cc3cccn3C)nnc2SCC(=O)NCc2ccco2)cc1	inconclusive: 56.2 µM [inhibitor, partial curve]
COc1ccc(-c2ccc(C3C(C#N)=C(N)Oc4n[nH]c(C)c43)o2)cc1 (configuration not stated)	inconclusive: 44.7 µM [inhibitor, partial curve]
CC(C)c1ccc(NC(=O)COC(=O)c2c[nH]c(=O)[nH]c2=O)cc1	inconclusive: 31.6 µM [inhibitor, partial curve]
COc1ccc(S(=O)(=O)Nc2ccccc2C(=O)N2CCOCC2)cc1Cl	inactive
O=[N+]([O-])c1ccccc1N(S(=O)(=O)c1ccccc1)S(=O)(=O)c1ccccc1	inconclusive: 31.6 µM [inhibitor, partial curve]
COCCn1nnnc1C(c1ccccn1)N1CCN(c2cc(Cl)ccc2C)CC1 (configuration not stated)	inconclusive: 89.1 µM [inhibitor, single point]
N#CC1=C(N)NC(SCC(=O)c2ccc(Br)cc2)=C(C#N)C12CCCCC2	inconclusive: 50.1 µM [inhibitor, partial curve]
Cc1sc2ncnc(NCCN3CCOCC3)c2c1C	active: 1.58 µM
COc1cccc(CNC(=O)CN2c3cccc4cccc(c34)S2(=O)=O)c1	inconclusive: 35.5 µM [inhibitor, full curve]

SMILES	Potency
O=C(NN=C1CCCCCC1)c1cc(-c2ccccc2)nc2ccccc12	inconclusive: 3.16 µM [inhibitor, single point]
O=C(N/N=C/c1ccc(O)c(O)c1)c1ccc(-n2cnnn2)cc1	inconclusive: 56.2 µM [inhibitor, partial curve]
O=[N+]([O-])c1cc(C(F)(F)F)ccc1NN=C1CCCC1	inconclusive: 8.91 µM [inhibitor, full curve]
CCOC(=O)c1ccc(OS(=O)(=O)c2ccccc2)c(OC)c1	active: 89.1 µM
CC(=O)c1sc(Nc2nc3cc4c(cc3s2)OCO4)nc1C	inconclusive: 79.4 µM [inhibitor, single point]
CCN1CCN(c2nc(C)nc3c2sc(=S)n3C)CC1	inconclusive: 100 µM [inhibitor, single point]
CN(CC(=O)Nc1cccc(F)c1)C(=O)CSc1ccccc1F	inactive
COc1ccc(C2=NOC(C(=O)NCc3ccccn3)C2)cc1 (configuration not stated)	inconclusive: 11.2 µM [inhibitor, partial curve]
CCCCC(=O)Nc1ccccc1C#N	inactive
Cc1ccc(NC(=O)c2c3c(nc4ccccc24)CCC3)cc1S(=O)(=O)N(C)C	inactive
O=C(Nc1ccc(C(=O)O)cc1)/C(=C\C=C\c1ccccc1)NC(=O)c1ccc(Br)cc1	inconclusive: 79.4 µM [inhibitor, single point]
CCC(CO)Nc1ncc([N+](=O)[O-])cc1C#N (configuration not stated)	inactive
S=c1[nH]nc(Cn2nnc3ccccc32)n1-c1ccccc1	active: 6.31 µM
Cn1c(=S)[nH]c2cccnc21	inconclusive: 79.4 µM [inhibitor, single point]
CCN1CCCC1CNC(=O)c1ccc(Sc2ccccc2Cl)c([N+](=O)[O-])c1 (configuration not stated)	inconclusive: 44.7 µM [inhibitor, full curve]
O=C(O)c1ccc2c3c(cccc13)C(=O)N(OS(=O)(=O)c1ccccc1)C2=O	inconclusive: 89.1 µM [inhibitor, single point]
COc1cccc(/C=C2/Sc3ccc(C(=O)NCCN4CCCCCC4)cc3NC2=O)c1	inconclusive: 39.8 µM [inhibitor, partial curve]
Cc1ccc(S(=O)(=O)N2CCN(S(=O)(=O)c3ccccc3)C2c2ccc(N(C)C)cc2)cc1 (configuration not stated)	inconclusive: 7.08 µM [inhibitor, full curve]
CC(C)(CNS(=O)(=O)c1cccs1)N1CCOCC1	inactive
COc1cccc(/C=N/Nc2ncnc3scc(-c4ccccc4)c23)c1OC	inconclusive: 35.5 µM [inhibitor, partial curve]
O=C(Nc1cccc(S(=O)(=O)N2CCOCC2)c1)c1ccc2c(=O)n3c(nc2c1)CCCCC3	inactive
O=C(NCC1CCCO1)c1ccc2c(c1)N(Cc1ccccc1)C(=O)CS2=O (configuration not stated)	inconclusive: 15.8 µM [inhibitor, full curve]
CN=c1scc(-c2ccc(F)cc2)n1/N=C/c1ccc(O)c(O)c1	active: 31.6 µM
O=C1CCCC2=C1C1(CCCC1)N=C(Nc1nc3cc(-c4ccccc4)ccc3o1)N2	inconclusive: 63.1 µM [inhibitor, partial curve, poor fit]
